Experimental data reported in PubChem BioAssay AID1345083 (National Center for Advancing Translational Sciences (NCATS), 2018).
Out of some 94,000 compounds screened, about 6,200 (6.6%) were called active. The inconclusive results got no clear call from the source; some entries with a clear call stand among them for comparison. The call rests on the fitted dose curve; in most records, active means well fitted inhibition curve with a large enough effect; inconclusive means small, poorly fitted or top-dose-only effect; inactive means flat fitted curve, though single readings scatter. Potencies of inconclusive entries are doubtful fits and often do not repeat.
On the % scale 0 is the no-effect control and ±100 the full control effect; potency means the concentration at half of the fitted maximal effect; tags describe the fitted curve by direction and shape.

Test: Cytotoxic Profiling in HEK 293 Cell Line of Diverse Libraries Using Quantitative High-Throughput Screening; further: nearly all actives have a fitted effect of over 60% in size
Settings: HEK 293 viability, ATP luminescence (CellTiter-Glo), 48-72 h; activity change, negative = cytotoxicity: at 115 µM (top of the series) unless noted; series mostly up to 115 µM
Summary of the method: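 Viability of HEK 293 cells, plated at 250 cells/well, was judged by cellular ATP after compound treatment for 48 or 72 hr. Luminescence was imaged 10 min after CellTiter-Glo addition at room temperature.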
For `CC(C)CCN1CCC2(Cc3ccccc3CNC2=O)C1` (stereo not drawn), the “activity change, negative = cytotoxicity” value was inactive: -15.7% [at 172 µM]. For `O=C(NCc1ccccc1Cl)C1CCN(c2nccc(Nc3ccccc3F)n2)CC1`, the Potency was inconclusive: 50.1 µM [inhibitor, partial curve, poor fit]. In the case of `COc1ccccc1-c1nnc([C@H]2CCN(Cc3cccnc3)C2)o1`, the “activity change, negative = cytotoxicity” value is reported as inactive: -4.82% [at 172 µM]. For `COc1ccc(CNC(=O)c2noc(-c3ccc(F)cc3)n2)cc1OC`, the Potency was inconclusive: 70.8 µM [inhibitor, partial curve, poor fit]. With `C[S+](=O)([O-])c1cccc(CN2CC(COc3ccccc3)C3(C2)CN(c2ccccc2)C3)c1` (stereo not drawn) the Potency was inconclusive: 25.1 µM [inhibitor, full curve]. For `Cc1cc(C)c2[nH]c(C(=O)N(C)Cc3ccccc3-n3cccn3)c(C)c2c1`, the Potency was inconclusive: 56.2 µM [inhibitor, partial curve, poor fit]. With `Cc1ccc(C(=O)N2CCCN(c3nc4ncccc4o3)CC2)cc1` the “activity change, negative = cytotoxicity” value was inactive: -18.1% [at 172 µM]. For `Cc1cccc(N2CCN(C(=O)C3c4ccccc4CC(=O)N3C)CC2)c1C` (stereo not drawn), the Potency was inconclusive: 50.1 µM [inhibitor, partial curve, poor fit]. In the case of `CC1=C[C@@H](CNCc2ccncc2)[C@H](C(C)C)C[C@H]1Cc1nnc(-c2ccc(N(C)C)cc2)o1`, the Potency is reported as inconclusive: 22.4 µM [inhibitor, full curve, poor fit]. In the case of `CCn1cc(-c2ccc(C)cc2)cc1C(=O)NCCN1CCOCC1`, the Potency is reported as inconclusive: 89.1 µM [inhibitor, single point]. In the case of `Cc1cccc(-c2noc(CCCC(=O)N3CCC4(CC(=O)NC4=O)C3)n2)c1` (stereo not drawn), the Potency is reported as inconclusive: 35.5 µM [inhibitor, partial curve, poor fit]. In the case of `C[C@@]12CO[C@@H](COc3ccccc3)O[C@@H]1CC[C@]1(C)C2CC[C@@H](O)[C@H]1CC(=O)NCc1cc(F)cc(F)c1` (stereo partly drawn), the Potency is reported as active: 28.2 µM. In the case of `O=c1[nH]c(C2CCCN(Cc3ccc(F)cc3)C2)nn1-c1ccccc1` (stereo not drawn), the “activity change, negative = cytotoxicity” value is reported as inactive: -17.8%. For `COc1ccc(-c2noc(-c3cccn3CC(=O)Nc3ccc(F)cc3)n2)cc1F`, the “activity change, negative = cytotoxicity” value was inactive: 4.43%. With `CC1=C[C@@H](CN2CCOCC2)[C@H](C(C)C)C[C@H]1Cc1nnc(-c2ccccc2F)o1` the Potency was active: 89.1 µM. With `COc1ccc(C(=O)NC[C@@H]2C=C(C)[C@H](Cc3nnc(-c4ccncc4)o3)C[C@H]2C(C)C)cc1` the Potency was active: 50.1 µM. In the case of `Cc1ccc(-c2ncc(C(=O)Nc3cc(F)cc(F)c3)c(-c3ccncc3)n2)cc1`, the Potency is reported as inconclusive: 44.7 µM [inhibitor, partial curve, poor fit]. With `O=C(c1cccc(OC(F)(F)F)c1)N1CCN(c2cc(-c3ccc(F)cc3)[nH]n2)CC1` the Potency was inconclusive: 50.1 µM [inhibitor, partial curve, poor fit].
